The other results are listed elsewhere or left out.
How the values were obtained:
Experiment in all cases: glycan array binding signal (z-score within array); higher = stronger binding
Settings in all cases: glycan notation: IUPAC condensed, linker removed
[1] = target: Neu5Ac(a2-6)Gal(b1-4)GlcNAc(b1-2)Man(a1-3)[GlcNAc(b1-4)][Neu5Ac(a2-6)Gal(b1-4)GlcNAc(b1-2)Man(a1-6)]Man(b1-4)GlcNAc(b1-4)GlcNAc
In short: (§1)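 Glycan array data came from 3228 arrays in the Consortium for Functional Glycomics database, and only arrays with an available protein sequence were kept. Glycan names were put into IUPAC-condensed notation, and columns mapping to the same glycan were averaged. The binding signal is a within-array Z-score, averaged across arrays of one protein sequence run at different concentrations or buffers and across linkers. A negative Z-score can be read as non-binding.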

[2] = target: Neu5Ac(a2-6)Gal(b1-4)GlcNAc(b1-2)Man(a1-3)[Man(a1-6)]Man(b1-4)GlcNAc(b1-4)GlcNAc
In short: as §1

[3] = target: Neu5Ac(a2-6)Gal(b1-4)GlcNAc(b1-2)Man(a1-3)[Neu5Ac(a2-3)Gal(b1-4)GlcNAc(b1-2)Man(a1-6)]Man(b1-4)GlcNAc(b1-4)GlcNAc
In short: as §1

[4] = target: Neu5Ac(a2-6)Gal(b1-4)GlcNAc(b1-2)Man(a1-3)[Neu5Ac(a2-6)Gal(b1-4)GlcNAc(b1-2)Man(a1-6)]Man(b1-4)GlcNAc(b1-4)GlcNAc
In short: as §1

[5] = target: Neu5Ac(a2-6)Gal(b1-4)GlcNAc(b1-2)Man(a1-3)[Neu5Ac(a2-6)Gal(b1-4)GlcNAc(b1-2)Man(a1-6)]Man(b1-4)GlcNAc(b1-4)[Fuc(a1-6)]GlcNAc
In short: as §1

[6] = target: Neu5Ac(a2-6)Gal(b1-4)GlcNAc(b1-2)Man(a1-6)Man(b1-4)GlcNAc(b1-4)GlcNAc
In short: as §1

[7] = target: Neu5Ac(a2-6)Gal(b1-4)GlcNAc(b1-2)Man(a1-6)[Gal(b1-4)GlcNAc(b1-2)Man(a1-3)]Man(b1-4)GlcNAc(b1-4)GlcNAc
In short: as §1

[8] = target: Neu5Ac(a2-6)Gal(b1-4)GlcNAc(b1-2)Man(a1-6)[GlcNAc(b1-2)Man(a1-3)]Man(b1-4)GlcNAc(b1-4)GlcNAc
In short: as §1

[9] = target: Neu5Ac(a2-6)Gal(b1-4)GlcNAc(b1-2)Man(a1-6)[Man(a1-3)]Man(b1-4)GlcNAc(b1-4)GlcNAc
In short: as §1

[10] = target: Neu5Ac(a2-6)Gal(b1-4)GlcNAc(b1-2)[Neu5Ac(a2-6)Gal(b1-4)GlcNAc(b1-4)]Man(a1-3)[GlcNAc(b1-4)][Neu5Ac(a2-6)Gal(b1-4)GlcNAc(b1-2)[Neu5Ac(a2-6)Gal(b1-4)GlcNAc(b1-6)]Man(a1-6)]Man(b1-4)GlcNAc(b1-4)GlcNAc
In short: as §1

[11] = target: Neu5Ac(a2-6)Gal(b1-4)GlcNAc(b1-2)[Neu5Ac(a2-6)Gal(b1-4)GlcNAc(b1-4)]Man(a1-3)[GlcNAc(b1-4)][Neu5Ac(a2-6)Gal(b1-4)GlcNAc(b1-4)Man(a1-6)]Man(b1-4)GlcNAc(b1-4)GlcNAc
In short: as §1

[12] = target: Neu5Ac(a2-6)Gal(b1-4)GlcNAc(b1-2)[Neu5Ac(a2-6)Gal(b1-4)GlcNAc(b1-6)]Man(a1-6)[Neu5Ac(a2-6)Gal(b1-4)GlcNAc(b1-2)Man(a1-3)][GlcNAc(b1-4)]Man(b1-4)GlcNAc(b1-4)GlcNAc
In short: as §1

[13] = target: Neu5Ac(a2-6)Gal(b1-4)GlcNAc(b1-3)Gal(b1-3)GlcNAc
In short: as §1

[14] = target: Neu5Ac(a2-6)Gal(b1-4)GlcNAc(b1-3)Gal(b1-4)GlcNAc
In short: as §1

[15] = target: Neu5Ac(a2-6)Gal(b1-4)GlcNAc(b1-3)Gal(b1-4)GlcNAc(b1-2)Man(a1-3)[Neu5Ac(a2-6)Gal(b1-4)GlcNAc(b1-3)Gal(b1-4)GlcNAc(b1-2)Man(a1-6)]GalNAc
In short: as §1

[16] = target: Neu5Ac(a2-6)Gal(b1-4)GlcNAc(b1-3)Gal(b1-4)GlcNAc(b1-3)Gal(b1-4)GlcNAc
In short: as §1

[17] = target: Neu5Ac(a2-6)Gal(b1-4)GlcNAc(b1-3)Gal(b1-4)GlcNAc(b1-3)Gal(b1-4)GlcNAc(b1-2)Man(a1-3)[Neu5Ac(a2-6)Gal(b1-4)GlcNAc(b1-3)Gal(b1-4)GlcNAc(b1-3)Gal(b1-4)GlcNAc(b1-2)Man(a1-6)]GalNAc
In short: as §1

[18] = target: Neu5Ac(a2-6)Gal(b1-4)GlcNAc(b1-3)Gal(b1-4)GlcNAc(b1-3)GalNAc
In short: as §1

[19] = target: Neu5Ac(a2-6)Gal(b1-4)GlcNAc(b1-3)Gal(b1-4)GlcNAc(b1-3)[Neu5Ac(a2-6)Gal(b1-4)GlcNAc(b1-3)Gal(b1-4)GlcNAc(b1-6)]GalNAc
In short: as §1

[20] = target: Neu5Ac(a2-6)Gal(b1-4)GlcNAc(b1-3)Gal(b1-4)GlcNAc(b1-6)[Gal(b1-3)]GalNAc
In short: as §1

[21] = target: Neu5Ac(a2-6)Gal(b1-4)GlcNAc(b1-3)Gal(b1-4)[Fuc(a1-3)]GlcNAc(b1-3)Gal(b1-4)[Fuc(a1-3)]GlcNAc
In short: as §1

[22] = target: Neu5Ac(a2-6)Gal(b1-4)GlcNAc(b1-3)GalNAc
In short: as §1

[23] = target: Neu5Ac(a2-6)Gal(b1-4)GlcNAc(b1-3)[Neu5Ac(a2-6)Gal(b1-4)GlcNAc(b1-6)]GalNAc
In short: as §1

[24] = target: Neu5Ac(a2-6)Gal(b1-4)GlcNAc(b1-6)GalNAc
In short: as §1

[25] = target: Neu5Ac(a2-6)Gal(b1-4)GlcNAc(b1-6)[Gal(b1-3)GlcNAc(b1-3)]Gal(b1-4)Glc
In short: as §1

[26] = target: Neu5Ac(a2-6)Gal(b1-4)GlcNAc(b1-6)[Gal(b1-3)]GalNAc
In short: as §1

[27] = target: Neu5Ac(a2-6)Gal(b1-4)GlcNAc6S
In short: as §1

[28] = target: Neu5Ac(a2-6)GalNAc
In short: as §1

[29] = target: Neu5Ac(a2-6)GalNAc(b1-4)GlcNAc
In short: as §1

[30] = target: Neu5Ac(a2-6)GalNAc(b1-4)GlcNAc6S
In short: as §1

[31] = target: Neu5Ac(a2-6)GlcNAc(b1-4)GlcNAc
In short: as §1

B1: DC-ASGPR L+GEE (Homo sapiens) (protein)
chain: MTRTYENFQYLENKVKVQGFKNGPLPLQSLLQRLRSGPCHLLLSLGLGLLLLVIICVVGFQNSKFQRDLVTLRTDFSNFTSNTVAEIQALTSQGSSLEETIASLKAEVEGFKQERQAGVSELQEHTTQKAHLGHCPHCPSVCVPVHSEMLLRVQQLVQDLKKLTCQVATLNNNGEEASTEGTCCPVNWVEHQDSCYWFSHSGMSWAEAEKYCQLKNAHLVVINSREEQNFVQKYLGSAYTWMGLSDPEGAWKWVDGTDYATGFQNWKPGQPDDWQGHGLGGGEDCAHFHPDGRWNDDVCQRPYHWVCEAGLGQTSQESH
- glycan array binding signal (z-score) [1]: -0.178
- glycan array binding signal (z-score) [2]: -0.127
- glycan array binding signal (z-score) [3]: 0.898
- glycan array binding signal (z-score) [4]: 0.009
- glycan array binding signal (z-score) [5]: -0.327
- glycan array binding signal (z-score) [6]: -0.255
- glycan array binding signal (z-score) [7]: -0.447
- glycan array binding signal (z-score) [8]: -0.328
- glycan array binding signal (z-score) [9]: -0.21
- glycan array binding signal (z-score) [10]: -0.396
- glycan array binding signal (z-score) [11]: 0.835
- glycan array binding signal (z-score) [12]: -0.563
- glycan array binding signal (z-score) [13]: 0.079
- glycan array binding signal (z-score) [14]: -0.842
- glycan array binding signal (z-score) [15]: 0.155
- glycan array binding signal (z-score) [16]: 0.635
- glycan array binding signal (z-score) [17]: 0.947
- glycan array binding signal (z-score) [18]: -0.923
- glycan array binding signal (z-score) [19]: -0.018
- glycan array binding signal (z-score) [20]: -0.83
- glycan array binding signal (z-score) [21]: -0.108
- glycan array binding signal (z-score) [22]: 0.583
- glycan array binding signal (z-score) [23]: -0.181
- glycan array binding signal (z-score) [24]: -0.304
- glycan array binding signal (z-score) [25]: -0.478
- glycan array binding signal (z-score) [26]: -0.373
- glycan array binding signal (z-score) [27]: 0.107
- glycan array binding signal (z-score) [28]: 1.65
- glycan array binding signal (z-score) [29]: 0.37
- glycan array binding signal (z-score) [30]: 0.772
- glycan array binding signal (z-score) [31]: 0.184
